Consider four compounds from patent publication US20040023994A1 (priority 2002, published 2004).

Read-outs that look alike come from different tables or passages of the source.

Series [1] relates to NCI-H322M. As to conditions: Non-Small Cell Lung, NCI database, cited from earlier work; for CC50: read-out: LC50 (the source's name).
Series [2] relates to NCI-H322M.

Regarding `Sc1ncnc2nc[nH]c12` [6-MP, 6-mercaptopurine], in the series with NCI-H322M [1], the CC50 was > 100 µM; the GI50 (usually the concentration at which growth is held to half of that of the control) is 7.69 µM; the TGI (as a rule, the concentration giving total growth inhibition) was >100 µM.
With `Nc1nc2nc[nH]c2c(=S)[nH]1` [6-TG, 6-thioguanine], in the series with NCI-H322M [1], the CC50 was > 100 µM, the GI50 was 7.33 µM and the TGI was >100 µM.
`CC(=O)C=CSc1ncnc2nc[nH]c12` [cis-AVTP, 6-(2-acetylvinylthio) purine]: the GI50 with NCI-H322M [2] (Homo sapiens, 48 h) came to 2490 nM. For the same compound, the CC50 in the series on NCI-H322M [2] (Homo sapiens, 48 h, read-out: LC50) amounted to 68.8 µM. Further, the total growth inhibition concentration (TGI) in the series with NCI-H322M [2] (Non-Small Cell Lung, 48 h) was determined as 15.6 µM.
In the case of `CC(=O)C=CSc1nc(N)nc2nc[nH]c12` [trans-AVTG, 6-(2-acetylvinylthio) guanine], in the series on NCI-H322M [2] (Non-Small Cell Lung, 48 h), the GI50 came to 2520 nM and the concentration for total growth inhibition (TGI) is 22.2 µM. The CC50 with NCI-H322M [2] (read-out: LC50, Non-Small Cell Lung, 48 h) is > 100 µM.
